Several values for one entry are separate records, joined by “and”; a condition that tells them apart may be missing. Equal values may be shown once. The whole screen tested about 420,000 compounds, of which about 64,000 (15%) were called active. Inconclusive means that the source gave no clear call. Such entries were picked first, then a sample of the others. The call rests on the fitted dose curve; in most records, active means well fitted inhibition curve with a large enough effect; inconclusive means small, poorly fitted or top-dose-only effect; inactive means flat fitted curve, though single readings scatter. Potencies of inconclusive entries are doubtful fits and often do not repeat.
Assay: qHTS for Inhibitors of human tyrosyl-DNA phosphodiesterase 1 (TDP1): qHTS in cells in absence of CPT; further: nearly all actives have a fitted effect of over 55% in size
Settings: DT40 Tdp1-/- hTDP1 cells, no CPT, ATP luminescence, 48 h; activity change, negative = growth inhibition: at 46.2 µM (top of the series) unless noted
In short: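 Growth kinetics read by CellTiter-Glo luminescence after ≥48 hr at 37 °C. Cells: DT40 Tdp1-/- stably carrying human TDP1, 400 per well, compound exposure in the absence of CPT (DMSO vehicle).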
On the % scale 0 is the no-effect control and ±100 the full control effect; potency means the concentration at half of the fitted maximal effect; tags describe the fitted curve by direction and shape.

Compound | activity change, negative = growth inhibition | Potency
C=CCSc1nnc(NC(=O)C2CC(=O)N(c3ccc4c(c3)OCCO4)C2)s1 (stereo not drawn) | inactive: 13.2% | 
Cc1ccc(CCNC(=O)CN(C)S(=O)(=O)c2ccc3c(c2)n(C)c(=O)c(=O)n3C)cc1 | inactive: -9.24% | 
CC1CCCN(c2ccc(C(=O)NCc3ccc4c(c3)OCO4)cc2[N+](=O)[O-])C1 (stereo not drawn) |  | inconclusive: 16.4 µM [inhibitor, single point]
CC(=O)c1cccc(NC(=O)C2=CN3CCS(=O)(=O)N=C3C=C2)c1 | inactive: 0.122% | 
Cc1ccc2c(c1)c1c(n2C)-c2[nH]ncc2CC1 |  | inconclusive: 20.6 µM [inhibitor, single point]
O=C(Nc1ccccc1N1CCOCC1)c1ccc2ccccc2c1 | inconclusive: -32.3% [inhibitor] | 
O=C(COc1ncnc2sccc12)N1CCc2ccccc2C1 | inactive: -4.52% | 
COc1cc(C(=O)N/C(=C\c2cn(C)c3ccccc23)C(=O)N2CCOCC2)cc(OC)c1OC | inactive: 21.5% | 
CCOC(=O)C1CCCN(c2nc3ccccc3nc2C(C#N)C(=O)OC(C)COC)C1 (stereo not drawn) |  | inconclusive: 29.1 µM [inhibitor, single point]
COC(=O)c1c(SC)nc2ccccc2c1OCc1cccc(C)c1 |  | inconclusive: 20.6 µM [inhibitor, partial curve]
O=C(COC(=O)CNC(=O)c1ccccc1F)NCCC1=CCCCC1 | inactive: -3.39% | 
COC(=O)c1ccc(NC(=O)c2cc[n+](Cc3ccccc3)cc2)cc1 | inactive: 2.03% | 
c1ccc(COc2ncnc3c2ncn3CCCNCc2cccs2)cc1 |  | inconclusive: 11.6 µM [inhibitor, partial curve, poor fit]
Cc1nc2nc(COc3ccccc3)[nH]n2c(=O)c1Cl | inactive: 2.91% | 
CCc1ccc(S(=O)(=O)/N=C2\C=C(Nc3ccc(O)cc3)C(=O)c3ccccc32)cc1 |  | active: 3.26 µM
O/N=C/c1ccccc1Oc1ccc(Cl)cc1 |  | active: 16.4 µM
O=C(NNS(=O)(=O)c1ccc(Cl)cc1)c1cc(-c2ccccc2)n[nH]1 |  | inconclusive: 8.2 µM [inhibitor, partial curve]
COc1ccc(C(CNC(=O)c2cccc(S(=O)(=O)Nc3ccc(F)cc3)c2)N2CCCCC2)cc1 (stereo not drawn) |  | inconclusive: 25.9 µM [inhibitor, single point]
CCOC(=O)c1ccc(NC(=O)c2nc[nH]c2C(=O)N[C@@H](CC(C)C)C(=O)OC(C)(C)C)cc1 |  | inconclusive: 29.1 µM [inhibitor, single point]
COCc1c(C(=O)N/N=C/C2CC=CCC2)nnn1-c1nonc1N (stereo not drawn) | inactive: -17.3% | 
COc1ccc(CNS(=O)(=O)c2ccc(-n3cnnn3)c(C)c2)cc1 |  | inconclusive: 20.6 µM [inhibitor, single point]
CC1CCCC/C1=N\NC(=S)NCCc1ccccc1 (stereo not drawn) |  | inconclusive: 29.1 µM [inhibitor, single point]
CC(C)(CCl)C(=O)Nc1ccc(Sc2ccc(F)cc2)cc1 |  | active: 7.31 µM
COCCn1c(SCC(=O)N2CCN(c3ccccc3)CC2)nc2c(c1=O)SC(C)C2 (stereo not drawn) |  | active: 18.4 µM
CNc1nc(N)c(C(=O)C23CC4CC(CC(C4)C2)C3)s1 | inactive: -24.2% | 

Compound | activity change, negative = growth inhibition | Potency
O=C(Nc1ccc(F)c(Cl)c1)C1CCN(S(=O)(=O)c2cccnc2)CC1 |  | inconclusive: 16.4 µM [inhibitor, single point]
COc1ccc2c(c1)Cc1sc(NC(=O)c3ccccc3)nc1-2 |  | inconclusive: 20.6 µM [inhibitor, single point]
CCc1ccc(NC(=O)N2CC=C(c3c[nH]c4ccccc34)CC2)cc1 |  | active: 5.17 µM
COCCN1CCN(C(=O)c2cc(COc3cc(C)ccc3C)on2)CC1 |  | inconclusive: 29.1 µM [inhibitor, single point]
Cc1csc2nc(COC(=O)c3ccccc3NC(=O)c3ccccc3Cl)cc(=O)n12 |  | active: 11.6 µM
Cc1cccc(-c2cc(C(=O)Nc3c(C)n(C)n(-c4ccccc4)c3=O)c3ccccc3n2)c1 |  | active: 14.6 µM
CNC(=O)C1CCC(Cn2c(=O)c3sccc3n(Cc3ccccc3)c2=O)CC1 (stereo not drawn) |  | inconclusive: 6.51 µM [inhibitor, full curve]
NC(=S)N/N=C1/CCSc2ccc3ccccc3c21 |  | active: 2.59 µM
CCn1c(COc2ccc(=O)n(-c3ccccc3)n2)nnc1SCc1ccccc1 |  | inconclusive: 14.6 µM [inhibitor, single point]
COc1ccccc1CCNC(=O)c1cc2c(=O)n3cccc(C)c3nc2n1C | inactive: -27.1% | 
Cn1ncc([N+](=O)[O-])c1C(=O)Nc1ccn(Cc2ccccc2F)n1 | inactive: -1.5% | 
CCN(CC)c1ccc(NC(=O)CCS(=O)(=O)c2cccc3nsnc23)c(C)c1 |  | inconclusive: 16.4 µM [inhibitor, single point] and inconclusive: 23.1 µM [inhibitor, single point]
O=S(=O)(Nc1ccc(Cl)cn1)c1cccc(S(=O)(=O)c2ccccc2)c1 |  | inconclusive: 29.1 µM [inhibitor, single point]
Cc1csc(NC(=O)c2nc(-c3ccccc3)n(-c3ccccc3)n2)n1 |  | inconclusive: 20.6 µM [inhibitor, single point]
COc1ccc(-c2c(C)nn3c(N4CCN(Cc5ccccc5)CC4)cc(C)nc23)cc1OC |  | active: 23.1 µM
Oc1cc(-c2cccs2)cc2c1OCCN(Cc1cn[nH]c1-c1ccc(Cl)cc1)C2 |  | inconclusive: 29.1 µM [inhibitor, single point]
CCOC(=O)C1=NN(c2ccc(C)cc2)C2(S1)SC(C(C)=O)=C(C)N2c1ccccc1 (stereo not drawn) |  | active: 20.6 µM
CS(=O)(=O)N(Cc1ccccc1)c1ccc(C(=O)Nc2ccc3c(c2)OCO3)cc1 |  | inconclusive: 29.1 µM [inhibitor, single point]
C(=N\NCc1ccccc1)/c1ccc2nccnc2c1 |  | inconclusive: 25.9 µM [inhibitor, single point]
Cn1c(=O)[nH]c(=O)c2[nH]c(CN3CCN(Cc4ccccc4)CC3)nc21 | inactive: 0.103% | 
Cc1cc(Cl)ccc1NC(=S)NCCc1ccc(Cl)cc1 |  | inconclusive: 20.6 µM [inhibitor, single point]
COc1cc(CCC(=O)NCc2ccc(Cl)cc2)cc(OC)c1OC |  | inconclusive: 29.1 µM [inhibitor, single point]
Cc1cc(S(=O)(=O)Nc2cc3c(cc2C)n(C)c(=O)c(=O)n3C)ccc1F | inactive: -29.4% | 
COc1ccc(CC(=O)Nc2cccc3ncccc23)cc1OC | inactive: -6.44% | 
COC(=O)c1ccc(C)cc1 | inactive: 4.88% | 

Compound | activity change, negative = growth inhibition | Potency
CN(C)c1ccc(C2/C(=C(/O)c3ccc(Br)cc3)C(=O)C(=O)N2C)cc1 (stereo not drawn) | inactive: -14.2% | 
CCOC(=O)c1ccc(NC(=S)Nc2cccc(C)n2)cc1 |  | inconclusive: 0.731 µM [inhibitor, full curve, poor fit]
O=C(c1ccc(Cl)nc1)N1CCN(S(=O)(=O)c2ccc(Cl)cc2)CC1 |  | inconclusive: 23.1 µM [inhibitor, single point]
C1=C(CCNc2nnnn2-c2ccccc2)CCCC1 |  | inconclusive: 23.1 µM [inhibitor, single point]
COc1cccc(/C=N/n2cnc3cc(C)c(C)cc32)c1OC |  | inconclusive: 16.4 µM [inhibitor, single point]
O=C(NCc1cccnc1)C(=O)NCC1CCCO1 (stereo not drawn) | inactive: 5.93% | 
Cc1ccc(N(CCC#N)C(=O)CN2C(=O)NC(Cc3ccccc3)C2=O)cc1 (stereo not drawn) | inactive: 2.53% | 
O=C(NCc1ccccc1)C(=O)NCC1CCCN1S(=O)(=O)c1cccs1 (stereo not drawn) | inactive: -1.22% | 
Cc1ccc(C)c(N2CCN(c3nnnn3-c3ccccc3)CC2)c1 |  | inconclusive: 29.1 µM [inhibitor, single point]
COc1ccc(CN2C(=O)CCC2(C)c2nnnn2-c2c(C)cccc2C)cc1 (stereo not drawn) |  | inconclusive: 10.3 µM [inhibitor, partial curve]
Cc1ccc(NC(=O)C2(C)CCN2C(=O)c2ccccc2CCc2ccccc2)cc1C (stereo not drawn) | inactive: -94.7% | 
CCC(C)c1ccccc1N1CC(C(=O)N2CCN(S(=O)(=O)c3cccc([N+](=O)[O-])c3)CC2)CC1=O (stereo not drawn) |  | inconclusive: 25.9 µM [inhibitor, single point]
CC1CC(C)(C)N(C(=O)NC2CCCCC2)c2ccccc21 (stereo not drawn) |  | inconclusive: 20.6 µM [inhibitor, partial curve, poor fit]
Cc1cc(C)c2c(n1)nn1c(C)c(CCC(=O)Nc3ccc(C)c(Cl)c3)c(C)nc21 |  | inconclusive: 6.51 µM [inhibitor, single point]
CCc1nnc(NC(=O)Cn2c(=O)oc3ccccc32)s1 |  | inconclusive: 20.6 µM [inhibitor, partial curve]
CC(=O)NC(c1ccc(F)c(F)c1)c1nc(-c2cccc(C(C)C)c2)cs1 (stereo not drawn) |  | active: 23.1 µM
Fc1ccccc1Nc1nc2ccccc2o1 |  | inconclusive: 7.31 µM [inhibitor, partial curve]
O=C(Nc1nc(-c2ccc(Cl)cc2Cl)cs1)C1CCCO1 (stereo not drawn) |  | inconclusive: 16.4 µM [inhibitor, partial curve]
CC(=O)Nc1cccc(Oc2cc(C#N)c(C#N)cc2N2CCCCCC2)c1 |  | inconclusive: 29.1 µM [inhibitor, single point]
Cc1cc(C)c2c(=O)n(CC(=O)Nc3ccc(Cl)cc3)sc2n1 |  | active: 2.59 µM
Cc1ccccc1NC(=O)CSc1ncc2c(n1)-c1ccccc1N(C)S2(=O)=O | inactive: -25.9% | 
Cc1cccc(NC(=O)CCNS(=O)(=O)c2cccc3nonc23)c1C | inactive: 1.35% | 
CCCCOc1ccc(C(=O)NCC2(c3ccccc3)CCOCC2)cc1 |  | inconclusive: 25.9 µM [inhibitor, single point]

Reference: PubChem BioAssay AID686978 (National Center for Advancing Translational Sciences (NCATS), 2013)
